Laboratory results reported in the supplement of paper PMC11417369.
± gives the standard deviation of the averaged measurements. Some of the results follow.

Each sequence was assayed on PfAP2-G AP2 domain (GST-tagged) (assay: gcPBM binding intensity (ln(normalized median fluorescence intensity)); higher = stronger DNA binding).
How it was run: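 For binding intensity, the highest Masliner-normalised natural-log median intensity across replicate spots of either probe orientation was taken. Protein bound to the array was stained with Alexa488 anti-GST antibody and scanned at 488 nm. The protein, GST-tagged P. falciparum DNA-binding domains from E. coli at about 25 μg on average, had been applied for 1 h to an Agilent 4 × 180k array of primer-extended double-stranded 36-bp intergenic genomic probes and negative controls.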

| Sequence | gcPBM binding intensity (ln) |
| --- | --- |
| CCTCTTAATATGTGCACACTAAATTATAACATAATT [CACACA_site3259] | 10.9 ± 0.55 |
| TGAAAAGTAAAATACACACACATAATCTAATTTATA [CACACA_site7024] | 9.87 ± 0.18 |
| GGTTAACATAAATATATACACACCAATGATGGCATT [CACACA_site1568] | 9.84 |
| TAGAAATATATAAATTGTACATGTTTGTATAATATA [XGTACX_site2097] | 10.8 ± 0.4 |
| AAATAATTAGAAATAGTGCACATAATTAAGGGATAC | 10.5 ± 0.21 |
| ATTTTTATTTACAACCCCAAAAAGGAAAAACATAAA [CACACA_negctrl_site1169] | 10.3 ± 0.36 |
| AATATTTATACTATAACACACATACAGACAAAAAAA [CACACA_site6396] | 10.3 ± 0.28 |
| TTACATTATATACATACACACCCACCCACAAAAAAA [CACACA_site8187] | 10.7 ± 0.47 |
| TTTTTTTTTTTTTTTTGTACGTAAAAAAATATATAC [XGTACX_site1290] | 11.3 ± 0.93 |
| TTGTTATATTACAGTAGTACATTTAAAATCTACTAC [XGTACX_site2620] | 11.4 ± 0.93 |
| TATTTTTATAATATATGTACATATATATATATATTA [XGTACX_site5343] | 11.2 ± 0.79 |
| ACATATTATATGAATACACACAAAAACTTATCGGTA [CACACA_site3439] | 10.14 ± 0.078 |
| ATAATATCATCAAACGCACACATACATAAATATATT [CACACA_site5230] | 10.1 ± 0.13 |
| ACAGGAAAAAACAATTGTACATGTATATATATATAT [XGTACX_site7677] | 10.8 ± 0.45 |
| ATATATATATATATATGTACATATTTTATTTGAAAT [XGTACX_site7411] | 11.2 ± 0.69 |
| AAAAAAAAAAAAAAAAGTACGTATTTTTTTTAAAAT [XGTACX_site2654] | 11.6 ± 0.91 |
| AAGACAATATATGCAGTGCATATACATACATATATA | 9.88 ± 0.19 |
| GCATAATATACTCTTACACACCATTTCTAAATACAT [CACACA_site4912] | 10.21 ± 0.021 |
| ATGCTATATTAAAAACGTACAAACTGTTTAGAAAAA [XGTACX_site8943] | 11.3 ± 0.88 |
| TTTTTTCTTAAAGACATATATTTATTTGGTAAAACA [XGTACX_negctrl_site243] | 9.81 ± 0.13 |
| GGATATAACAGACACACACACACATATAAATATATT [CACACA_site7866] | 10.2 ± 0.23 |
| AAAAAAATAATTTGTAGTACGATTCAATGAAAAGGC [XGTACX_site1287] | 11.2 ± 0.79 |
| ATACATATATACATATGTACATATATATATATATAT [XGTACX_site8206] | 11 ± 0.55 |

| Sequence | gcPBM binding intensity (ln) |
| --- | --- |
| TTGAAAATGAAAAAATGTACTTAAAAAAAAGGAACA [XGTACX_site8664] | 11.2 ± 0.71 |
| TCTTTGAATTTTTTAACACACACATGGGTGGATATA [CACACA_site8474] | 10 ± 0.2 |
| ATAAAATTGTATAACTGTACATATATATATATATAT [XGTACX_site5596] | 11.1 ± 0.66 |
| CCCACAAAGGAATATACACACATATATATATATATA [CACACA_site4091] | 10.4 ± 0.76 |
| TAAATATTTTTTTAGACACACATATATCTATGATAT [CACACA_site1107] | 9.705 ± 0.049 |
| CAAAATAAAAATTAATGTACATAAAAAATGAATATA [XGTACX_site1085] | 11.2 ± 0.59 |
| CGGACATACATAGGAACATGCAAAATTTTTTATTTT [TGCATGCA_site575] | 9.81 ± 0.099 |
| AATAGAAAAAAAAAATGTACACATATAAAAGCATAT [XGTACX_site6306] | 11.3 ± 1 |
| TATTTACATTTATGTGCACACATTCCATTTGAAAGT [CACACA_site1954] | 10.6 ± 0.35 |
| TATTTTCTTTTTCTTGTACACACATAATATGGATGA [CACACA_site8168] | 11.3 ± 0.79 |
| GATATGTTTTCCTAGGTTCATGATGATAGGTAGTTT [XGTACX_negctrl_site217] | 9.93 ± 0.042 |
| TTTGTGGTTACATGTGCACACACTTATTTCGTTCTT [CACACA_site1435] | 10.8 ± 0.35 |
| TGTTAATATATCATTATGTTATAGGTTCAGCTGGGA [CACACA_negctrl_site401] | 9.9 ± 0.11 |
| AATATATAAATTGACACACACATATATACATATATA [CACACA_site1213] | 10.1 ± 0.11 |
| TTTTATGCATGTGAAGTGCAAAATAAAAAATAAAAT [GTGCAC_site9612] | 10.22 ± 0.099 |
| AAGGTGGTTATTAAATGTACACAGACATATACAAAA [XGTACX_site3007] | 11.3 ± 0.77 |
| AGGTAGAAAAAAGACACACACATTATATATATATAT [CACACA_site4367] | 9.97 ± 0.29 |
| ATATGCTACATTATATGTACACACATATACATATAT [XGTACX_site1656] | 11.2 ± 0.69 |
| TAATATAAAGAAATATCAATAATTTGGGCAAATGCC [GTGCAC_negctrl_site621] | 9.905 ± 0.078 |
| TATAAATATAGAATTACACACAATGTTCTATAAATA [CACACA_site7508] | 9.615 ± 0.092 |
| TATATTTGTTAATTTTGTACGTATGGATATACATAA [XGTACX_site5100] | 11.2 ± 0.76 |
| AAAGAATACATATATTGTACATATATATATACCGTT [XGTACX_site6250] | 10.9 ± 0.41 |
